These results are taken from patent US20160237147A1.

Assay [1] has as its target recombinant human NGF 1-120 (human) (UniProt P01138). In words: cell-based or functional assay.
The target in assay [2] is recombinant rat beta-NGF (R&D Systems) (rat) (UniProt P25427). The experiment in a line: cell-based or functional assay.
Chain of UniProt P25427 (P25427 122-241 limits assumed): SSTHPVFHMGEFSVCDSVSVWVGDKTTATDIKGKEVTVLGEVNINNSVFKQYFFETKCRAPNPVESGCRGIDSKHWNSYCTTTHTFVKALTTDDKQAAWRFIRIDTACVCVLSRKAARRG

Chain of UniProt P01138 (P01138 other isoform, or with tags, fused parts or gaps): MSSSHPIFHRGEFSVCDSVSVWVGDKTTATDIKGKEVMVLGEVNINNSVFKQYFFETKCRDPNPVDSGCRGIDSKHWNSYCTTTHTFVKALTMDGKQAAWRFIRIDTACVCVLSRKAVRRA

B1: anti-NGF antibody 7H2 (antibody, V domains shown)
VH: EVQLVESGGGLVQPGRSLRLSCAASGFIFDDYAMHWVRQAPGKGLEWVSGITWNSGILGYADSVKGRFTISRDDAKNSLYLQMNSLRAEDTALYYCAKEEGSGRYYNFDYWGQGTLVTVSS
VL: [about 100 residues not written out]
For the molecule B1, the IC50 @ hNGF, NGF neutralization activity as in Example 3 in assay [1] worked out at 3.29 nM. In assay [2], the IC50 @ rNGF, NGF neutralization activity as in Example 3 worked out at 1.75 nM.

B2: 7H2-rFc (molecular clone of 7H2 expressed in CHO cells) (antibody, V domains shown)
VH: EVQLVESGGGLVQPGRSLRLSCAASGFIFDDYAMHWVRQAPGKGLEWVSGITWNSGILGYADSVKGRFTISRDDAKNSLYLQMNSLRAEDTALYYCAKEEGSGRYYNFDYWGQGTLVTVSS
VL: [about 100 residues not written out]
B2: the IC50 @ hNGF, NGF neutralization activity of the molecular clone expressed in CHO cells in assay [1] turned out to be 0.963 nM. In assay [2], the IC50 @ rNGF, NGF neutralization activity of the molecular clone expressed in CHO cells is 0.792 nM.
